The whole screen tested about 48,000 compounds, of which about 120 (0.25%) were called active. About 4% were inconclusive and are not listed. Calls come from the whole dose curve; as a rule, active = well fitted activation curve with a large enough effect; inconclusive = small, poorly fitted or top-dose-only effect, or another doubt; inactive = no such curve, though single readings can be large or run the other way. The list shows a part of the results.
test: Primary qHTS for Identification of Small Molecule Activators of Huntingtin-Antisense Promoter Activity; details: HEK293 HTT-AS promoter firefly luciferase reporter (activity 0% = vehicle and -100% = no light), 24 h; series mostly up to 57.5 µM; activity change, positive = activation: at the top concentration; note: nearly all actives have a fitted effect of over 55% in size
Summary of the method: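 HEK293 luciferase promoter-reporter cells (2,500/well) plated 24 h, then compounds added at up to 57.5 uM final for 24 h at 37 °C. Firefly luminescence by Dual-Glo, normalized to vehicle (0%) and zero RLU (-100%).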

Activity change, positive = activation, inactive:
COc1ccc(N2CCN(S(=O)(=O)c3ccc(-c4cc(C(F)(F)F)on4)s3)CC2)cc1 -15.7%
CCC(=O)Nc1cc(C(=O)NCc2ccc(C)cc2)ccc1S(=O)(=O)c1ccc(C)cc1 -18.2%
CCc1cccc(C)c1Nc1c(-c2ccc(N(C)C)cc2)nc2ncccn12 -31%
Cc1ccc(C)c(CN2C(=O)c3ccccc3Sc3ccc(C(=O)NCc4ccco4)cc32)c1 -36.5%
Cc1cccc(OCc2ccc(-c3nc(C#N)c(N4CCN(c5ccccc5)CC4)o3)o2)c1 -16.4%
Cc1cc(C)c2oc(C(=O)Nc3c(C(=O)c4ccc(F)cc4)oc4ccccc34)cc(=O)c2c1 3.39%
CC1CCC(NC(=O)C2(C)Cc3ccccc3C(=O)N2Cc2ccccc2Cl)CC1 (stereo not given) -4.6%
N#Cc1ccccc1NC(=O)C(=O)NCC(c1cccnc1)N1CCc2ccccc2C1 (stereo not given) -5.82%
CN1[C@@H]2CC[C@H]1CC(OC(=O)c1c[nH]c3ccccc13)C2 (stereo not given in full) -3.31%
COc1cccc(CNc2ccc3c(c2)ncn3C)c1OC 0.849%
Cc1cc(SCC(=O)NCc2ccccc2)nc(=O)[nH]1 -16.1%
CCC(=O)N1CCc2cc(S(=O)(=O)NCCC(=O)Nc3cccc(C)c3C)ccc21 -0.53%
CCOc1ccccc1NC(=O)C1CCCN(S(=O)(=O)c2ccc3c(c2)CCCN3C(C)=O)C1 (stereo not given) -27.3%
CCc1ccc(S(=O)(=O)c2nnn3c2nc(Nc2cccc(C)c2C)c2sccc23)cc1 -42.8%
O=C(NCc1ccccc1Br)c1ccc(-n2cnc3cccnc32)cc1 -4%
COc1cc(-c2nnc(SCC(=O)N3CCCc4ccccc43)o2)cc(OC)c1OC -4.02%
COc1ccc(N(CC(=O)Nc2ccc(Cl)cc2C)S(=O)(=O)c2ccccc2)c(OC)c1 -12.2%
Cc1ccccc1C(=O)Nc1nnc(S(=O)(=O)N2CCCc3ccccc32)s1 -10.7%
CCN(C(=O)Cn1nc(Cc2cccnc2)c2ccccc2c1=O)c1cc(C)ccc1C -33.3%
COc1ccc(C(=O)N2CCC(C(=O)Nc3ccc(OC)cc3OC)CC2)cc1 3.56%
Cc1ccc(-n2c(=O)c3sccc3n(Cc3cc(=O)n4ccccc4n3)c2=O)cc1 -5.98%
O=C1C(c2ccc(C(F)(F)F)cc2)=C(Nc2ccc(Cl)cc2)c2ccccc21 -27.2%
Cc1onc(-c2ccccc2)c1C(=O)N[C@@H]1C(=O)N2[C@@H](C(=O)O)C(C)(C)S[C@@H]12 -3.53%
Cc1cccc(-c2cc(NC(=O)COc3ccccc3F)n(-c3ccccc3)n2)c1 21.1%
Cc1nnsc1C(=O)Oc1ccccc1Cl -2.56%
CSc1ccccc1NC(=O)CCS(=O)(=O)c1nc(-c2cccs2)cc(C(F)(F)F)n1 -5.69%
Cc1ccc(-c2cn3c4c(=O)n(C)c(=O)n(C)c4nc3n2-c2cccc(Cl)c2)cc1 -25.2%
CCn1c(C(=O)Nc2cc(C)cc(C)c2)cc2sc(Cl)cc21 -1.58%
COc1ccc(C(=O)N=c2sc3cc(Cl)ccc3n2C)cc1 -2.94%
Cc1ccc(NC(=O)CSc2nnc(-c3cc4occc4n3C)n2-c2ccccc2C)cc1F -24.5%
CCN(CC)CCOC(=O)c1ccc(NC(=O)CCn2c(=O)oc3ccccc32)cc1 -15.7%
COCCNC(=O)Cn1c(=O)n(-c2ccc(C)c(C)c2)c(=O)c2c3c(sc21)CCCCC3 -15%
CCOC(=O)c1cccc(NC(=O)C2CCN(c3nnc(C)c4c(C)n(-c5ccccc5)nc34)CC2)c1 -4.99%
COc1ccc(NC(=O)CN2CCN(S(=O)(=O)c3ccc(Br)cc3)CC2)cc1 -18.4%
COc1ccc(Cl)cc1NC(=O)C(C)N1Cc2ccccc2C1=O (stereo not given) -4.74%
CCOc1cc(CNC(=O)C(NS(=O)(=O)c2cccs2)C(C)C)cc(OCC)c1OCC (stereo not given) 11.9%
O=C(Cn1c(SCc2cccc(F)c2)nc2ccncc21)Nc1ccc(Cl)cc1F -11.3%
COc1ccc(NCc2cccn2-c2nnc(N3CCOCC3)s2)c(OC)c1 9.45%
O=C(NNc1ncnc2c1cnn2-c1ccccc1)c1ccccc1 14.4%
COc1ccc(C(=O)Nc2ccc3nc(N4CCCCC4)cc(C)c3c2)c(OC)c1 7.42%
Cc1cn2c(=O)cc(COc3cccc(NC(=O)c4cccc(F)c4)c3)nc2s1 -10.1%
COc1ccc(N2CCN(S(=O)(=O)CCNC(=O)Cc3ccc(-c4ccccc4)cc3)CC2)cc1 -7.93%
CN[C@@H]1C[C@H]2O[C@@](C)([C@H]1OC)n1c3ccccc3c3c4c(c5c6ccccc6n2c5c31)C(=O)N[C@H]4O -55.5%
Cc1ccc(C(CC(=O)Nc2ccc(C)cc2C)N2Cc3ccccc3C2=O)cc1 (stereo not given) -36.2%
CCOC(=O)c1c(NC(C)=O)c2c3c(sc2n1Cc1cccc(Cl)c1)CCCC3 -12%
CCCN(C(=O)CCn1cnc2onc(-c3ccc(F)cc3)c2c1=O)c1ccccc1C -33.9%
CCOC(=O)c1c(-c2ccccc2)csc1NC(=O)c1cc(-c2cccc(OC)c2)on1 -11.9%
Cc1ccc(Cl)cc1N1CCN(C(=O)Cn2nc(C)n3c(cc4sccc43)c2=O)CC1 -19.6%
Cc1cc(C)cc(C(=O)Nc2c3c(nn2-c2ccccc2C)CS(=O)(=O)C3)c1 -9.36%
Cc1ccc(C(=O)Nc2nnc(SCc3cc(=O)n4ccc(C)cc4n3)s2)cc1 15.2%
Cc1cc(C)cc(NC(=O)Cn2nnc(C(=O)NCc3ccco3)c2N)c1 -16.9%
O=C(CN1C(=O)COc2ccc(S(=O)(=O)N3CCCCCC3)cc21)N1CCN(c2ccccc2)CC1 -21.6%
CCC(=O)N1c2nc(C(C)C)nn2C2(CCCCC2)[C@@H]2CCCC[C@@H]21 2.51%
CC(=O)c1ccc(N2CCN(c3ccc(NC(=O)c4cccs4)cc3C(=O)O)CC2)cc1 14.4%
CC(C(=O)NCc1ccccc1Cl)n1ccc2cc(S(=O)(=O)N3CCCCC3)ccc21 (stereo not given) -29.3%
Cc1ccc(-n2ncc(C(=O)NCCCN3CCCCC3)c2C2CCN(C(=O)OC(C)(C)C)CC2)c(C)c1 -6.03%
Cc1ccc(NC(=O)CSc2nnc3nc(C)cc(C)n23)cc1 -15.7%
CCc1cccc(C)c1NC(=O)CCCn1c(=O)c2cccn2c2cccnc21 -0.393%
CCOC(=O)c1ccccc1NC(=O)NC(C)c1c(-n2cccc2)sc(C)c1C (stereo not given) -26.8%
Cc1ccc(C)c(NC(=O)CN2C(=O)c3cccc4cccc2c34)c1 -16%

From PubChem BioAssay AID1508624 (National Center for Advancing Translational Sciences (NCATS), 2021)
